Patent US12564641B2 (EISAI R&D MANAGEMENT CO., LTD., priority 2019, dated 2026)
Where “and” joins values, the source holds several entries; their conditions need not be identical. Equal entries are not always repeated.

What was measured:
[1] = tested on: human gastric cancer NCI-N87 xenograft; assay: Human gastric cancer NCI-N87 xenograft model (Study M109-010-2018); assay type: in vivo, mouse; conditions: 10 mg/kg
[2] = tested on: human mesothelioma HAY xenograft; conditions: single dose 5 mg/kg
Procedure: Female CD-1 IGS mice (Charles River, 7-9 weeks old) were used for the maximum tolerated dose (MTD) study, female NOD.CB17-SCID mice (Jackson Laboratory) were used for the NCI-H2110 and HAY xenograft studies, and female NCr nude mice (Taconic, 5 weeks old) were used for the NCI-N87 xenograft studies. Upon arrival, animals were acclimated for 5-7 days prior to inoculation.
Cryopreserved NCI-H2110, NCI-N87, or HAY cells from frozen stocks were cultured in medium containing necessary supplements.
Mice were injected subcutaneously with 100 μL/mouse of cell mixture and monitored for body weight and tumor growth.
Mice were randomized to five mice per group once tumor implants reached an average volume of 100 mm^3. Treatment was given intravenously at a volume of 200 μL. Terminal body weight was measured and recorded at the end of each study.
Comparison of tumor growth within each experimental group was also performed using the same statistical analysis.

[3] = tested on: human NSCLC PDX LC-F-25; assay: Human NSCLC PDX model LC-F-25; assay type: in vivo, mouse
Procedure: Statistical analysis: Statistical analysis was performed for each measurement by a Mann-Whitney non-parametric comparison test. Each treated group was compared with the control group.

[4] = tested on: human NSCLC PDX LXFA-737; conditions: 10 mg/kg single dose i.v.
Procedure: Animals: Female NMRI nu/nu mice (Crl:NMRI-Foxn1nu), 4 to 6 weeks of age.
(§1) Experimental procedure: Animals were monitored until the tumor implants reached the study volume criteria of 50-250 mm^3 (e.g., 80-200 mm^3) in a sufficient number of animals. […] The day of randomization was designated as day 0.
(§2) Tumors were measured and mice were weighed twice a week during the experimental period. The first day of dosing was day 1, one day after randomization (day 0).
Statistical analysis: Inhibition of Tumor Growth, Test/Control Value in % (Min. T/C): The test versus control value (T/C in %) was calculated from the ratio of the median residual tumor volume (RTV) values of test versus control groups on day X multiplied by 100. Tumor volume doubling and quadrupling time (Td, Tq) for test and control groups was defined as the time interval (in days) required for a group to reach a median RTV of 200% or 400%.

[5] = Pharmacokinetics (total antibody and intact ADC, Gyros) in NCI-N87 tumor-bearing mice (Example 9); assay type: in vivo, mouse; conditions: single dose 10 mg/kg
Procedure: (§3) PK analysis was performed using both an intact ADC assay and a total antibody assay. Total antibody refers to the sum total of all species, including conjugated and unconjugated species (i.e., DAR0+DAR1+DAR2+ . . . +DARn), whereas intact ADC refers to all conjugated species (i.e., DAR1+DAR2+ . . . +DARn). Total antibody assay used biotinylated mesothelin for capture and AlexaFluor647-labelled anti-human Fc for detection. Intact ADC assay used biotinylated anti-eribulin 5E4 for capture and AlexaFluor647-labelled anti-human Fc for detection. Sample analysis was performed on a Gyros analyzer. Data analysis was performed in WatsonLIMS 7.4.1 and plotted in Microsoft Excel. Eribulin was quantitated using LC-MS from plasma, tumor, and bone marrow samples. 9.1.3 LC-MS

[6] = Eribulin quantitation by LC-MS in plasma, tumor, and bone marrow (Example 9); assay type: in vivo, mouse; conditions: NCI-N87-tumor-bearing mice, single dose 10 mg/kg
Procedure: as §3

[7] = DAR of ADC in plasma samples by LC-MS (Example 9); assay type: in vivo, mouse
Procedure: Dynabeads M-280 streptavidin (100 μL) were incubated with 3 μg of capture select human IgG-Fc PK biotin conjugate for 1 hour at room temperature, then washed with HBS-EP buffer. […] Washed beads containing complex were deglycosylated with Rapid PNGaseF (1 μL) in PNGase buffer for 1 hour at 37° C., then washed once in HBS-EP buffer. […] Samples were analyzed for intact or reduced mass with Synapt G2/M-class UPLC analysis.

[8] = tested on: human NSCLC PDX LXFA-586; assay: Human NSCLC PDX model LXFA-586; conditions: 25 mg/kg single dose i.v.
Excerpt: (§4) Animals: Female NMRI nu/nu mice, 4 to 6 weeks of age.
Xenotransplantation: LXFA-586 established growing tumor (T2N1M0) from a primary non-small cell lung adenocarcinoma human patient.
as §1, with “mmi)” for “mm^3)”, “The process of the assignment to groups (enrollment, stratified randomization) may also be referred to as randomization. The” for “The”, “0 of the experiment.” for “0.”
as §2

[9] = tested on: human NSCLC PDX LXFL-529; assay: Human NSCLC PDX model LXFL-529
Excerpt: as §4
Xenotransplantation: LXFL-529 established growing tumor (T3N1M0) from a primary non-small cell lung adenocarcinoma human patient.
as §1, with “The process of the assignment to groups (enrollment, stratified randomization) may also be referred to as randomization. The” for “The”, “0 of the experiment.” for “0.”
as §2

[10] = tested on: human gastric cancer NCI-N87 xenograft; conditions: dose ranges from 5 mg/kg to 25 mg/kg
[11] = tested on: MSLN-positive cell lines

B1: MORAb-109 (DAR2) (conjugate)
heavy: QVQLVESGGGVVQPGRSLRLSCAASGIDLSSYAMSWVRQAPGKGLEWIGVIDISGNRFYADWVKGRFTISRDNSKNTLYLQMSSLRAEDTAVYYCARVDSRAWGPFNLWGQGTLVTVSS[skipping human IgG1 constant region]
light: DYQMTQSPSSLSASVGDRVTITCQASQSIFSYLAWYQQKPGKAPKLLIYDASDLASGVPSRFSGSGSGTDFTLTISSLQCEDAATYYCQQGYTRSDVDNAFGGGTKVEIKRTVAAPSVFIFPPSDEQLKSGTASVVCLLNNFYPREAKVQWKVDNALQSGNSQESVTEQDSKDSTYSLSSTLTLSKADYEKHKVYACEVTHQGLSSPVTKSFNRGEC
modifications: non-natural residues
anti-tumor response ([1]; FIG. 13A): durable and similar anti-tumor responses
body weight change ([1]; FIG. 13B): little to no weight loss
anti-tumor response ([2]; FIG. 14A): durable and similar anti-tumor responses
body weight change ([2]; FIG. 14B): no body weight loss
anti-tumor effect ([3]; 10 mg/kg single dose i.v.): tumor growth delay
tolerability / bodyweight ([3]; single dose of 10 mg/kg, intravenous): well tolerated without bodyweight loss
Tq (tumor volume quadrupling time) [4]: not reached
tolerability / bodyweight [4]: well tolerated without bodyweight loss
minimum T/C ([4]; on day 41): 2.3%
AUC0-inf, ADC [5]: 14200 µg·h/mL
AUC0-inf, Total Ab [5]: 20900 µg·h/mL
CLtot, ADC [5]: 17 mL/day/kg
Cmax, Total Ab [5]: 137 µg/mL
T1/2, ADC [5]: 134 h
T1/2, Total Ab [5]: 191 h
Tmax, Total Ab [5]: 0.17 h
Vdss, ADC [5]: 0.121 L/kg
AUC0-inf, Bone marrow ERI ([6]; eribulin in bone marrow): 9.9 µg·h/mL
T1/2, Bone marrow ERI ([6]; eribulin in bone marrow): 151 h
Tmax, Bone marrow ERI ([6]; eribulin in bone marrow): 1 h
AUC0-inf, Plasma ERI ([6]; eribulin in plasma): 0.044 µg·h/mL
Cmax, Plasma ERI ([6]; eribulin in plasma): 0.00065 µg/mL
T1/2, Plasma ERI ([6]; eribulin in plasma): 59 h
Tmax, Plasma ERI ([6]; eribulin in plasma): 0.17 h
AUC0-inf, Tumor ERI ([6]; eribulin in tumor): 17.8 µg·h/mL
Cmax, Tumor ERI ([6]; eribulin in tumor): 64 ng/g
T1/2, Tumor ERI ([6]; eribulin in tumor): 162 h
Tmax, Tumor ERI ([6]; eribulin in tumor): 24 h
Averaged DAR in plasma ([7]; 8 hours): 1.89
DAR in plasma, individual mice 1-3 ([7]; 8 hours): 1.88 and 1.86 and 1.92
Averaged DAR in plasma ([7]; 24 hours): 1.86
DAR in plasma, individual mice 1-3 ([7]; 24 hours): 1.83 and 1.86 and 1.90
Averaged DAR in plasma ([7]; 48 hours): 1.84
DAR in plasma, individual mice 1-3 ([7]; 48 hours): 1.87 and 1.82 and 1.83
Averaged DAR in plasma ([7]; 96 hours): 1.75
DAR in plasma, individual mice 1-3 ([7]; 96 hours): 1.83 and 1.65 and 1.78
Averaged DAR in plasma ([7]; 336 hours): 1.52
DAR in plasma, individual mice 1-3 ([7]; 336 hours): 1.38 and 1.54 and 1.64
Averaged DAR in plasma ([7]; 504 hours): 1.30
DAR in plasma, individual mice 1-3 ([7]; 504 hours): 1.08 and 1.18 and 1.63
Tq (tumor volume quadrupling time) [8]: not reached
tolerability / bodyweight [8]: well tolerated without body weight loss
minimum T/C ([8]; on day 41): 1.8%
anti-tumor efficacy ([9]; 12.5 mg/kg i.v.): robust anti-tumor efficacy
anti-tumor efficacy ([9]; 25 mg/kg single dose i.v.): robust anti-tumor efficacy
tolerability / bodyweight ([9]; single dose i.v.): well tolerated without bodyweight loss
efficacy (dose-response) [10]: Dose-dependent efficacy
cytotoxicity on MSLN-positive cell lines [11]: specific cytotoxicity
